Over roughly 33,000 sequences, “E-score (-0.5 to 0.5)” has its median near -0.035; the highest 2% begin near 0.35. The list shows a part of the results.
target: T1, Pdr3 (UniProt P33200); test: PBM E-score (8-mer binding enrichment) (E-score (-0.5 to 0.5)); higher = stronger / more preferred TF binding; most listed sequences are background and not binding sites; details: protein concentration: 200 nM; construct: GST-full length
T1 sequence: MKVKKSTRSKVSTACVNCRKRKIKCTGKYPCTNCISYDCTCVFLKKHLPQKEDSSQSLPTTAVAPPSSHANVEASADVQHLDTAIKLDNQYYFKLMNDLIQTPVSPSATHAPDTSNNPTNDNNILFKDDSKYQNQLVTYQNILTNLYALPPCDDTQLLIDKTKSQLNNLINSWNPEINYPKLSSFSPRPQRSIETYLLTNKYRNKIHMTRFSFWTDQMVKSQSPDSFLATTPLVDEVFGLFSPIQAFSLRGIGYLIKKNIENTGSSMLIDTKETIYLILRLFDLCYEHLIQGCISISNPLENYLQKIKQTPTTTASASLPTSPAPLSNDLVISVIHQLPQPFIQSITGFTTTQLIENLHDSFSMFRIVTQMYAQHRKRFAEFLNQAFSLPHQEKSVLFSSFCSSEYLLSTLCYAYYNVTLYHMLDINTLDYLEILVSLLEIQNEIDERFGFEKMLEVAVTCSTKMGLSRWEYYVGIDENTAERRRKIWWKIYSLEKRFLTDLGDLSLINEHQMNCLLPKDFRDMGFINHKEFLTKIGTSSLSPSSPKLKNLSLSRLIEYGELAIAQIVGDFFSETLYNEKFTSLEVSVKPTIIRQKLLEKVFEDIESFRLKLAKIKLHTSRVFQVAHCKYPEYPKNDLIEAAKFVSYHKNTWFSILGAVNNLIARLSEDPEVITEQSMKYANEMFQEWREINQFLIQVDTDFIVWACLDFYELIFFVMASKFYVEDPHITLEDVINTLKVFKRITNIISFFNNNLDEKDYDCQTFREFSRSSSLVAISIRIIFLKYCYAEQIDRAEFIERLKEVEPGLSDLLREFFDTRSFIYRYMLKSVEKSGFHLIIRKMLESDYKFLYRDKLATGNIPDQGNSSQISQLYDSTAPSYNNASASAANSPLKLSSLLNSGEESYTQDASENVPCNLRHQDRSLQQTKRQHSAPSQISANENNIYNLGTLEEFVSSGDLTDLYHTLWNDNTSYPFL
How it was run: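 Detection of bound protein used fluorescent anti-GST, with scans normalised by masliner. The proteins were GST-tagged yeast transcription factors applied at about 100-200 nM to universal all-10-mer Agilent arrays made double-stranded by primer extension. Each ungapped eight-base word, pooled with its reverse complement, was scored with an E-score from the Universal PBM Analysis Suite.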

Sequence | PBM E-score
GTCCCGGA | 0.394
ACCATCGT | -0.106
CAGATGGG | -0.123
CACCATGC | -0.0273
AGCACAAA | 0.12
GAGTTTTA | -0.05
CCTAGTAG | -0.212
ATTGATAA | -0.144
CCCGACGA | 0.193
CCTGGTAA | -0.0941
GGCGTTCA | -0.00773
ACCTAAAA | -0.145
ACCCACTG | 0.0251
CAGTACCC | -0.0015
TCAGGACA | 0.0152
CGCGTCTC | 0.0716
CATCGCAC | -0.0715
GACCGTTA | 0.0194
GCGGTAGA | -0.0184
TATACAGA | -0.0427
CGCATACA | -0.0893
ACTCTTAT | -0.0592

Sequence | PBM E-score
CGAGTCGC | -0.0735
AAGCGCAT | -0.109
ACCAATTA | -0.0106
GACAACAC | -0.08
TATAGTAA | 0.0774
CCCCCCTC | -0.285
TAGTACGA | -0.00259
TATTACCA | -0.138
CTCCTAGC | -0.298
ACGAATAG | -0.209
CCAGTAGG | -0.132
ACTCTCCG | 0.302
TCCCGCAA | 0.223
CGTGACGA | 0.0083
ACACTACA | 0.034
ACGGAGGC | 0.249
GGAGTTGA | 0.0524
GATCACGC | 0.143
AGGGAGCC | -0.108
ACAATCAC | -0.131
CTGGCTAA | -0.187
CAATGGTA | -0.00598

Sequence | PBM E-score
ACTGTGTC | -0.0823
ACGAACAA | 0.108
AATTAGGG | -0.0163
AGTGTAAC | -0.158
GAAGAATA | -0.231
GCCACACA | 0.0788
CACGCACA | -0.00829
CGGGGACG | 0.124
TGGATGAA | -0.0658
ACTTACGC | -0.113
CGCCCCCG | 0.14
GACTCTGA | -0.109
GTCGGGGA | 0.136
AAGGCCCC | -0.0506
GCAGGCGC | 0.0764
ATTCGAAC | -0.067
GCGCACGC | 0.0986
ATACTCGG | 0.192
AAGAATAC | -0.0155
AGTGTTTC | -0.0492
TGCTCACA | -0.239
AGTTGAAC | -0.126

Sequence | PBM E-score
CCGAGGAG | 0.132
CGGAGTAG | 0.304
AGATAGCT | -0.0286
GACAATTA | -0.0371
ACGAGGCG | 0.131
GCGAATCA | 0.0185
GCTTAGAC | -0.21
ATGAGTGG | -0.132
CCAAGGCC | -0.138
CAATAAAG | -0.0376
ACGCGCAT | -0.0392
CCCCTGGA | -0.189
TAAGAGCA | -0.058
ATAACGTA | 0.0709
ATGCTGTG | -0.127
CACGAACA | 0.0536
ATGTTTGA | -0.143
TCCTGGCA | -0.103
CGCCGGGA | 0.382
GCGCTCCC | 0.126

Source: the supplement of paper PMC3334620
